Results published in ChEMBL document CHEMBL1201862, “PubChem BioAssay data set” (2004).
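A five-concentration, 48-hour dose response in 96-well plates underlies each endpoint, interpolated linearly between surrounding concentrations. Abbreviation: GI50, concentration required for 50% inhibition of growth.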 Active and inactive are the calls of the source. Rule as the data show it: active = GI50 up to about 1.1 µM and inactive = higher.

These compounds were tested on NCI-H322M (assay: NCI anticancer screen, dose series, 48 h).
For `CSC1(CC(=O)N2CCCCC2)C(=O)Nc2ccccc21` (stereo not drawn), the GI50 was inactive: > 100 µM.
With `Cc1cc(CN(Cc2ccccc2)Cc2nc3ccccc3[nH]2)c(O)c(CN(Cc2nc3ccccc3[nH]2)Cc2nc3ccccc3[nH]2)c1` the GI50 was inactive: 8.13 µM.
In the case of `Cc1ccc(Nc2nc(C)c(C(/C=C/c3ccc(/C=C/C(=N/NC(=O)C[n+]4ccccc4)c4sc(Nc5ccc(C)cc5[N+](=O)[O-])nc4C)cc3)=N\NC(=O)C[n+]3ccccc3)s2)c([N+](=O)[O-])c1`, the GI50 is reported as inactive: > 100 µM.
In the case of `Cc1cc2c(cc1C)[n+]([O-])c(C(=O)C/C(=N/NC(=S)NN)C(=O)Nc1cccc(C(F)(F)F)c1)c[n+]2[O-]`, the GI50 is reported as inactive: > 100 µM.
With `O=[N+]([O-])c1cccc(C(O)/C(=N/O)c2nc3ccc(Cl)cc3nc2O)c1` (stereo not drawn) the GI50 was inactive: > 100 µM.
With `CC(C)C(=O)Cc1ccc2ccccc2n1` the GI50 was inactive: > 100 µM.
With `c1ccc(SC2(Sc3ccccc3)CCCC2)cc1` the GI50 was inactive: > 100 µM.
`Cc1coc2c1C[C@@]1(C)[C@H](CCC[C@@H]1C)[C@H]2O` was tested, and the GI50 was inactive: > 100 µM.
With `NC(=O)C(=O)C1C(=O)N(c2ccccc2)N=C1N` (stereo not drawn) the GI50 was inactive: > 100 µM.
For `CN(C(=O)[C@H](NC(=O)OCc1ccccc1)c1ccccc1)C1CCCCC1N1CCCC1` (stereo partly drawn), the GI50 was inactive: > 100 µM.
In the case of `ON(CCc1ccccn1)Cc1ccccc1`, the GI50 is reported as inactive: > 100 µM.
In the case of `O=C1CC2(C[C@@H]3CCCCCCCCC[C@@H](C3)C2)N1` (stereo partly drawn), the GI50 is reported as inactive: 17.4 µM.
`O=c1cc(NCc2ccncc2)[nH]c(=O)[nH]1` was tested, and the GI50 was inactive: > 100 µM.
With `CC(C)/C(Cl)=N/OC(=O)Nc1cccc(C(F)(F)F)c1` the GI50 was inactive: 6.97 µM.
`O=C1CC(c2ccc([N+](=O)[O-])cc2)C2(C(=O)NC(=S)NC2=O)C(c2ccc([N+](=O)[O-])cc2)C1` (stereo not drawn) was tested, and the GI50 was inactive: 13.4 µM.
With `C[C@H]1CCC2C(OC(=O)[C@@H]2CN(C)C)[C@]2(C)C(=O)C=CC12O` (stereo partly drawn) the GI50 was inactive: 17.2 µM.
In the case of `NC(=O)c1cc2ccc(O)cc2o/c1=N/c1ccccc1`, the GI50 is reported as inactive: 25.6 µM.
`CCN1CCN(c2nc3ccc([N+](=O)[O-])cc3nc2C(=O)c2ccccc2)CC1` was tested, and the GI50 was inactive: 31.4 µM.
In the case of `O=c1cc(O)c1=O`, the GI50 is reported as inactive: > 100 µM.
With `COc1ccc(NC(=O)CC2SC(Nc3ccc(Cl)cc3C)=NC2=O)c([N+](=O)[O-])c1` (stereo not drawn) the GI50 was inactive: > 100 µM.
In the case of `NCC1OC(OC2C(N)CC(N)C(O)C2OC2OC(CO)C(O)C2O)C(N)C(O)C1O` (stereo not drawn), the GI50 is reported as inactive: > 50 µM.
With `COC(=O)C1=C(CCCCO[Si](C)(C)C(C)(C)C)NC(=O)N2[C@@H](CCOCc3ccccc3)CC[C@H]12` the GI50 was inactive: 40.6 µM.
In the case of `O=[N+]([O-])c1cccc(C2=NN(c3ccccc3)C[N+](c3ccc(Br)cc3)=N2)c1`, the GI50 is reported as inactive: > 100 µM.
With `CCc1nnc(-c2nsc3ccccc23)s1` the GI50 was inactive: > 100 µM.
For `CC(C)CNP(=O)(NCC(C)C)Oc1ccc(CC(NC(=O)OCc2ccccc2)C(=O)OCc2ccccc2)cc1` (stereo not drawn), the GI50 was inactive: 13.4 µM.
In the case of `C=C(C)COC1CCCCO1` (stereo not drawn), the GI50 is reported as inactive: > 100 µM.
With `COc1cc(/C=C2\C[C@H]3[C@@H]4CC=C5C[C@@H](N6CCCC6)CC[C@]5(C)[C@H]4CC[C@]3(C)[C@H]2O)cc(OC)c1OC` the GI50 was inactive: 16.1 µM.
For `CCCSc1ccc2[nH]c(N3C(=O)/C(=C/c4ccc(SC)cc4)N=C3c3ccccc3)cc2c1`, the GI50 was inactive: 25.1 µM.
For `CCC(=O)Nc1nc2c(ncn2C2OC(COC(=O)CC)C(OC(=O)CC)C2OC(=O)CC)c(=O)[nH]1` (stereo not drawn), the GI50 was inactive: > 100 µM.
With `COc1ccc(NC(=O)NNS(=O)(=O)c2ccc(C)cc2)cc1` the GI50 was inactive: > 100 µM.
`CC(C)(C)n1c(=O)n2n(c1=O)Cc1cccc3cccc(c13)C2` was tested, and the GI50 was inactive: 36.3 µM.
In the case of `Cc1ncc([N+](=O)[O-])n1CCNC(=O)Cn1c([N+](=O)[O-])cnc1C`, the GI50 is reported as inactive: > 100 µM.
For `CCOC(=O)C(C)(C)/C=C\C(Cl)=C(Cl)Cl`, the GI50 was inactive: > 100 µM.
With `COc1ccc(-c2cc(-c3ccc(Nc4ccnc5cc(C(F)(F)F)ccc45)cc3)nc(N)c2C#N)c2ccccc12` the GI50 was inactive: 86.9 µM.
With `COc1ccc(/N=C\c2ccc(N(CCC#N)S(=O)(=O)c3ccccc3)cc2C)cc1` the GI50 was inactive: 52 µM.
For `CC12Nc3ccccc3N1C(=O)c1ccccc12` (stereo not drawn), the GI50 was inactive: > 100 µM.
`[O-][Cl+3]([O-])([O-])[O-].c1ccc(-c2csc3c4ccccc4c4ccccc4[n+]23)cc1` was tested, and the GI50 was inactive: 13.7 µM.
With `CO[C@H](c1ccccc1)[C@H](O)[C@](O)(c1ccccc1)P(=O)(OC)OC` the GI50 was inactive: > 100 µM.
With `CCSc1nc(COC(=O)NC)c(COC(=O)NC)n1C` the GI50 was inactive: > 100 µM.
In the case of `ClCCCN(CCCCl)c1ccc(/C=N/c2cccc(Cl)c2)cc1`, the GI50 is reported as inactive: 21.5 µM.
In the case of `C[N+](C)(C)CCN[N+]1(C)CCCc2ccccc21` (stereo not drawn), the GI50 is reported as inactive: > 100 µM.
For `COc1ccc([N+]2=NC(c3ccc([N+](=O)[O-])cc3)=NN(c3ccccc3)C2)cc1.[O-][Cl+3]([O-])([O-])[O-]`, the GI50 was inactive: 63.1 µM.
In the case of `CCC1N2CCCCC2[C@@H]2c3[nH]c4ccccc4c3CCN12` (stereo partly drawn), the GI50 is reported as inactive: > 100 µM.
